Some of the results follow. For part of these data: At the low end of the ranking the order means little. For part of these data: The protein was read in a cell extract, so binding may be indirect.
Tests used:
Settings in all cases: 20 mM HEPES pH 7.9, 100 mM NaCl, 1 mM DTT, 0.2 mg/mL BSA, 0.02% Triton X-100, 2% milk, 0.4 mg/mL salmon testes DNA; 1 h; temperature not stated; high values mean tight binding; double strand, one strand shown; sequences stand for … in GCCTAGCAC…GTGCTAGGTCTTGATTCGCTTGACGCTGCTG
PU.1 (IVT) = PU.1 (IVT) (UniProt P17947); assay: protein-binding microarray (PBM)
[1] = biological target: T1, FLI1 (endogenous, THP-1 nuclear extract) (UniProt Q01543); assay: nuclear extract protein-binding microarray (nextPBM)
T1 sequence: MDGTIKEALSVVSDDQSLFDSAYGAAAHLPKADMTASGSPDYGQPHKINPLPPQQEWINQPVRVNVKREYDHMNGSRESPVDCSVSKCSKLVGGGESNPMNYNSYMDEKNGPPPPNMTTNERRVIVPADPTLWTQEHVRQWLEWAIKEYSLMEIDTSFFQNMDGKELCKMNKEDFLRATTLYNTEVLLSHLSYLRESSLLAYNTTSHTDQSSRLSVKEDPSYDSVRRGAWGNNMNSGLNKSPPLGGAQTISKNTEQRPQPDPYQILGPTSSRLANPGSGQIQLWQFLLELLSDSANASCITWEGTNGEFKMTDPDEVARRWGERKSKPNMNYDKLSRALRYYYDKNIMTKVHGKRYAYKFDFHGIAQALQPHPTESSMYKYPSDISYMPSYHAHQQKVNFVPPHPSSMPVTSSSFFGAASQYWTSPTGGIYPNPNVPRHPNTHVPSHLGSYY

[2] = tested on: PU.1 (endogenous, THP-1 nuclear extract) + IRF8 (endogenous, THP-1 nuclear extract); assay: as above

Row | Sequence | binding signal (PU.1 (IVT)) [z-score] | binding signal [1] [z-score] | binding signal [2] [z-score]
1 | TAAAGGATGAACTGAAACCA | -0.0618 | 0.472 | 14.4
2 | CCTGGGAGGAAGTGAAACTC | 3.42 | 3.63 | 49.1
3 | CTGGCAGGGAACTGAAGCTC | 0.405 | -0.455 | 0.463
4 | TGGAACAGGAAGTGAAACCA | 5.22 | 5.64 | 74
5 | TAAAGGAGGCACTGAAACCA | -0.394 | -0.548 | 5.28
6 | GATAAGAGGAACTGAACGCT | 4.26 | 1.49 | 0.107
7 | GAAATAAGGAAGTGAAACTC | 6.7 | 3.93 | 63.4
8 | GATAAGAGGAACTGATAGCT | 3.9 | 1.72 | 2.15
9 | TAAAGGGGGAACTGAAACCA | 2.77 | 1.7 | 31.4
10 | CTCGCAGGGAACTGAAACTC | 0.811 | -0.165 | 12.1
11 | TCAAACAGGAAGTGAAACCA | 5.59 | 5.84 | 67.7
12 | CTGGCAGGGAACCGAAACTC | 0.141 | 0.33 | 50.1
13 | GACGCTGGGAAGTGAAACTA | 1.07 | 1.29 | 41.5
14 | CTGCCAGGGATGTGAAAGCA | -0.469 | 0.109 | 4.06
15 | TGAGAGGAGAAGTTAAACCT | 1.46 | 0.365 | -0.786
16 | TAAAGGAGGAACTGAAAACA | 3.62 | 1.24 | 1.74
17 | TAGAATAGGAAGTGAAACTC | 3.91 | 3.71 | 53
18 | TGAGAGGAGAAGTCAAACCT | 1.42 | 0.0483 | -0.073
19 | GATAAGAGGAACTAAAAGCT | 5.27 | 1.43 | -0.418

Row | Sequence | binding signal (PU.1 (IVT)) [z-score] | binding signal [1] [z-score] | binding signal [2] [z-score]
20 | TGGCAGAGGAAGTCAAACTA | 2.5 | 2.21 | -0.27
21 | ACTGGGAGGAAGTGAAACTG | 3.52 | 3.53 | 55.1
22 | AAAAAAAGAAAATGAAAGTA | 0.124 | -0.0854 | 17.5
23 | GGAAACAGGAAGTGAAACCA | 7.19 | 5.62 | 75
24 | AACATGAGGAACTGAAACTG | 3 | 1.55 | 32
25 | GAAAAGGAGAAGTGAAACTA | 5.47 | 4.21 | 73.5
26 | TAAAGGAGGAACTGAAACGA | 3.14 | 1.07 | 0.769
27 | GAAAAGAGGAAGCGAAACTA | 6.51 | 4.24 | 81.5
28 | CTGCCAGGGAAGTGAAAGGA | 1.27 | 0.591 | 1.31
29 | GTGCAAAGGAAGTGAAACTA | 1.56 | 2.72 | 52.9
30 | TAAAGGAGGAACAGAAACCA | 1.73 | 0.735 | 10.8
31 | CTGGAGAGGAAATGAAACTA | 1.5 | 2.87 | 35.9
32 | TGAAACAGGAAGTGAAACGA | 6.59 | 5.63 | 17.4
33 | AAAAAAAGGAAATGAAACTA | 3.74 | 2.99 | 41.2
34 | GATTAGAGGAACTGAAAGCT | 3.32 | 1.4 | 2.97
35 | CTGCCAGGGTAGTGAAAGCA | -0.469 | -0.794 | 2.34
36 | CTGCCAGAGAAGTGAAAGCA | -0.162 | -0.318 | 4.68
37 | GATAAGTGGAACTGAAAGCT | 1.15 | 0.036 | 2.8
38 | AAAAAAAGGAAATGAAAATA | 3.87 | 2.28 | 0.864

Row | Sequence | binding signal (PU.1 (IVT)) [z-score] | binding signal [1] [z-score] | binding signal [2] [z-score]
39 | GAAAAGAGGAAGCGAAACTG | 6.84 | 4.35 | 77.1
40 | TGAATCAGGAAGTGAAACCA | 4.41 | 4.15 | 65.4
41 | GAAAAGAGGAACAGAAACTG | 4.98 | 2.44 | 40.3
42 | TAAAAGGAGAAGTGAAACTC | 5.6 | 3.73 | 62.4
43 | GATAAGAGGAACTGGAAGCT | 3.81 | 2.31 | 0.706
44 | AAGAAGAGGAAGAGAAACTT | 3.2 | 1.69 | 3.84
45 | TGAGAGGAGCAGTGAAACCT | -0.428 | -0.498 | 5.87
46 | AAAAAAAGGAAATGAATGTA | 3.56 | 2.3 | 0.263
47 | CGAGAGGAGAAGTGAAACCT | 1.39 | 0.764 | 26.3
48 | TGACAGAGGAAGTGAAACTA | 3.77 | 3.41 | 63.7
49 | GATAAGAGGAACTGAAAGCA | 4.01 | 1.66 | 8.12
50 | CTGCCAGGGAAGTGCAAGCA | 0.9 | 0.69 | 0.447
51 | CGGCCAGGGAAGTGAAAGCA | 1 | 0.821 | 6
52 | TGCGAGGAGAAGTGAAACCT | 1.12 | 0.154 | 23.5
53 | GATAAGAGGAACTGAAAGCC | 4.49 | 1.4 | 3.69
54 | TGGCAGAGGAAGTGAAACCA | 3.52 | 3.74 | 49.6
55 | TCCAGGAGGAACTGAAAGCT | 1.74 | 0.687 | 1.97
56 | CTGGCAGGGAAGTGAAAGCA | 1.49 | 1.04 | 4.78
57 | TGAGAGGAGACGTGAAACCT | -0.741 | 0.0971 | 2.43

— publication PMC6451091
